# From publication PMC2757719
# Molecular target: EBNA1 with a shortened Gly-Ala repeat (referred to as EBNA1) (Epstein-Barr virus)
substance,measurement,value
"USP7 (ubiquitin specific protease USP7), full length (a stretch of the chain, letters omitted) (enzyme)","DNA binding affinity of EBNA1 for a single recognition site (EMSA), with excess USP7 against without",20 fold
